{"source": "paper PMC10258805", "about": "“Nonpeptidic Oxazole-Based Prolyl Oligopeptidase Ligands with Disease-Modifying Effects on α-Synuclein Mouse Models of Parkinson’s Disease” (Journal of Medicinal Chemistry, 2023)", "key": {"[1]": {"tested_on": "AAV2-CBA-αSyn-injected mice", "test": "Cylinder test in AAV-αSyn PD mouse model", "details": "10 mg/kg/day minipump, vs vehicle-treated AAV-αSyn mice"}, "[2]": {"tested_on": "αSyn dimerization in HEK-293 cells", "test": "αSyn-dimerization assay in HEK-293 cells", "format": "cell-based, human", "text": "Data are presented as mean + SEM. **, p < 0.01; student’s t-test."}, "[3]": {"target": "T1, PREP activity in mouse liver (Mus musculus, UniProt Q9QUR6)", "T1 construct": "PREP activity was measured from mouse brain and liver tissue samples; from tissue; host or cells: mouse liver", "test": "PREP activity in mouse liver after i.p. administration", "format": "in vivo", "details": "10 mg/kg i.p., throughout the monitoring period"}, "[4]": {"test": "Stability studies (NMR, MS, polarimetry, long-term monitoring)"}, "[5]": {"target": "T2, PREP activity in mouse brain (Mus musculus, UniProt Q9QUR6)", "T2 construct": "measuring PREP activity from mouse brain tissue lysates; from tissue; host or cells: mouse brain (C57BL/6JRccHsd mice)", "test": "PREP activity in mouse brain tissue lysates after i.p. administration", "format": "in vivo", "details": "10 mg/kg i.p."}, "[6]": {"tested_on": "LC3BII in HEK-293 PREP-KO cells", "test": "LC3BII Western blot in PREP-KO cells"}, "HEK-293 cells": {"tested_on": "HEK-293 cells", "test": "Cell viability (MTT) in HEK-293 cells", "format": "cell-based, human", "details": "HEK-293, up to 100 μM, 24 h", "protocol": "Toxicity testing of selected compounds\nThe impact of compounds on cell viability was assayed at the end of incubation period using a standard MTT assays as described earlier in Svarcbahs et al.11 and Myöhänen et al.12 HEK-293 and SH-SY5Y cells and mouse primary neurons were seeded onto 96-well plates (10,000 cells/well) and incubated overnight. Thereafter, the cells were incubated with 1, 10, and 100 µM of study compounds for 24 h (HEK-293 and SH-SY5Y cells) or 48 h (mouse primary neurons), followed by the measurement of mitochondrial […]\nFigure S68. Selected oxazoles were tested for cell viability in an MTT assay after 24 h treatment in (A) HEK-293 cells and (B) SH-SY5Y cells and 48 h treatment in (C) mouse primary neurons. Even with the high […]\nData are presented as mean + […]\nLC-MS detection of HUP-55 metabolites in the mouse brain\n(§1) The same column and gradient was used with UPLC-HDMS analysis of the metabolites of HUP-55, as for the analysis of HUP-55 detailed in the experimental section of the article. The analyses were performed with ESI (+) resolution mode and the exact masses were analysed with UPLC-Synapt G2 QTOF/MS (Waters). The […]\nCompound Retention time (min) m/z (M+H)+ Empirical formula"}, "[7]": {"test": "LC-MS detection of HUP-55 in the mouse brain"}, "mouse primary neurons": {"tested_on": "mouse primary neurons", "test": "Cell viability (MTT) in mouse primary neurons", "format": "cell-based", "details": "up to 100 μM, 48 h", "protocol": "Pure primary mouse cortical neurons were obtained from C57BL/6JRccHsd mice (WT) (P1). Cortical tissue was dissected out and dissociated in ice-cold Hank’s Balanced Salt Solution (HBSS) medium (#14175, ThermoFisher Scientific) containing trypsin (0.25 mg/mL) and DNAse (5 U/mL). After centrifugation, cortical neurons were resuspended in Neurobasal Medium (NBM; #21103049, ThermoFisher Scientific) containing 2% (v/v) B27 (#17504044, ThermoFisher Scientific), 1% (v/v) penicillin–streptomycin solution, 100 μg/mL Primocin (#ant-pm-1, InvivoGen, Toulouse, France), and 2 mM glutamine (#25030081, ThermoFisher Scientific) and seeded onto poly-L-lysine (#p4707, Sigma)-coated cell culture plates at an appropriate density (40,000 cells/well to 96-well plates). After 24 h seeding, the medium was half-changed, and neurons were maintained at 37 °C in a 5% CO2 incubator. The neurons were cultured for 7 days for experimental use.\nToxicity testing of selected compounds […]\nas §1, with “(Waters).” for “(Waters). The”"}}}
{"smiles": "Cc1nc(CCCc2ccccc2)oc1N1CCC[C@H]1C#N", "note": "[HUP-55, (S)-1-(4-Methyl-2-(3-phenylpropyl)oxazol-5-yl)pyrrolidine-2-carbonitrile]", "values": [{"measurement": "use of the ipsilateral forepaw in the cylinder test (in words)", "setting": "[1]; after 2 weeks of treatment (6-week time point)", "value": "significantly decreased their use of the ipsilateral forepaw"}, {"measurement": "ipsilateral paw use in the cylinder test (in words)", "setting": "[1]; endpoint 8 weeks post injection", "value": "statistically significant difference in ipsilateral paw use"}, {"measurement": "effect on αSyn dimerization", "setting": "[2]", "value": "decreases αSyn dimerization"}, {"measurement": "decrease of liver PREP activity", "setting": "[3]", "value": "approximately 25%"}, {"measurement": "hydrolysis or decomposition of the oxazole ring (NMR stability)", "setting": "[4]; NMR sample in DMSO-d6 observed over 2 months", "value": "not observed"}, {"measurement": "hydrolysis or decomposition of the oxazole ring (MS stability)", "setting": "[4]; conditions of the PREP inhibition assay, analyzed by MS", "value": "not observed"}, {"measurement": "decrease of brain PREP activity compared to the DMSO control", "setting": "[5]; during the first 45 min", "value": 50, "unit": "%"}, {"measurement": "brain PREP activity, % of the control", "setting": "[5]; end of the 3 h monitoring period", "value": 80, "unit": "%"}, {"measurement": "levels of the autophagosome marker LC3BII", "setting": "[6]", "value": "not altered"}, {"measurement": "toxicity (cell viability)", "setting": "HEK-293 cells", "value": "None of the compounds caused any toxicity"}, {"measurement": "presence in the brain (in words)", "setting": "[7]; 10 mg/kg i.p., 180 min", "value": "detectable amounts were still present"}, {"measurement": "AUC(0-t) at 3 h", "setting": "[7]; C57BL/6JRccHsd, brain, ip, 10 mg/kg", "value": 1.74, "unit": "µM·h"}, {"measurement": "toxicity (cell viability)", "setting": "mouse primary neurons", "value": "None of the compounds caused any toxicity"}]}
